# In PubChem BioAssay AID588855 (National Center for Advancing Translational Sciences (NCATS), 2011):
# The campaign covered roughly 410,000 compounds. About 5,000 (1.2%) were called active. Inconclusive results, whose numbers are uncertain, are shown with a selection of clear calls. The call rests on the fitted dose curve; in most records, active means well fitted inhibition curve with a large enough effect; inconclusive means small, poorly fitted or top-dose-only effect; inactive means no such curve, though single readings can be large or run the other way. Potencies beside an inconclusive call are fits to weak or partial responses and may not hold up.
# Test: qHTS for Inhibitors of TGF-b; further: nearly all actives have a fitted effect of over 65% in size
# Settings: HepG2 CAGA-GFP TGF-b/SMAD3 reporter, GFP fluorescence, 18 h, TGF-beta stimulated, 500 pg/mL final; series mostly up to 46.1 µM; activity, negative = inhibition: at the top concentration
# Method in brief: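 HEPG2 CAGA-GFP reporter cells (1000/well, DMEM with 1% FBS) received compounds, then recombinant TGF-beta at 500 pg/mL final for 18 hours at 37 degrees C. Per-cell GFP summed per well was normalised to unstimulated and stimulated DMSO controls before curve fitting.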
# On the % scale 0 is the no-effect control and ±100 the full control effect; potency means the concentration at half of the fitted maximal effect; tags describe the fitted curve by direction and shape.
Structure (SMILES),Potency,"activity, negative = inhibition"
Cc1[nH]c2ccccc2c1C(=O)C(C)OC(=O)c1ccccc1NCCO (stereo unspecified),"inconclusive: 35.5 µM [inhibitor, single point]",–
COC(=O)N1[C@H](C)C=C[C@]1(Cc1ccccc1)C(=O)NCCCNc1ncc(C(F)(F)F)cc1Cl,"inconclusive: 35.5 µM [inhibitor, single point]",–
COCCCNCCCCOc1ccc(Br)cc1C,"inconclusive: 35.5 µM [inhibitor, single point]",–
CN1CCc2c(sc(NC(=O)C3COc4ccccc4O3)c2C(N)=O)C1 (stereo unspecified),–,inactive: 7.26%
Cc1ccc(Nc2nc(N)nc(CSCCO)n2)cc1,–,inactive: -0.433%
COc1cccc(/C=C/c2onc(C)c2S(=O)(=O)N2CCC(C(=O)N3CCC(C)CC3)CC2)c1,"inconclusive: 0.562 µM [inhibitor, full curve, poor fit]",–
C=CCC1[C@H](C)[C@H]2[C@@H]3CC[C@@H](C3)[C@H]2CN1S(=O)(=O)c1ccc(C)cc1 (stereo partly specified),"inconclusive: 11.2 µM [inhibitor, partial curve]",–
COc1ccccc1N1CCN(C(=O)CSc2n[nH]c(-c3ccccc3)n2)CC1,"inconclusive: 2.82 µM [inhibitor, full curve, poor fit]",–
N#C/C(=C1\C(=O)Nc2c(Cl)cc(Cl)cc21)c1nnc2n1CCCCC2,–,inactive: -28.6%
CC1(C(=O)NCc2cccc(C(F)(F)F)c2)CCN1CCc1ccccc1 (stereo unspecified),"inconclusive: 35.5 µM [inhibitor, single point]",–
N#CCc1nn(Cc2ccc(F)cc2)c(=O)c2ccccc12,"inconclusive: 35.5 µM [inhibitor, single point]",–
CC(C)NC(=O)c1cnc(N2CCN(c3ccccn3)CC2)c2ccccc12,–,inactive: 14.6%
N#CC1=C(N)Oc2cc3ccccc3cc2C1c1cccs1 (stereo unspecified),"inconclusive: 22.4 µM [inhibitor, partial curve, poor fit]",–
O=C(N/N=C/c1cc(Br)ccc1O)C(c1ccncc1)N1CCOCC1 (stereo unspecified),"inconclusive: 2.82 µM [inhibitor, partial curve]",–
CC(=O)NC(CC(=O)NCCN1C(=O)S/C(=C\c2ccccc2)C1=O)c1ccccc1 (stereo unspecified),–,inactive: 0.581%
COCCN(C(=O)CCl)C(C(=O)NC1CCCCC1)c1ccccc1C (stereo unspecified),"inconclusive: 22.4 µM [inhibitor, single point]",–
Cn1c(CNC(=O)c2ccco2)nnc1SCC(=O)Nc1ccc(Cl)cc1,–,inactive: -2.32%
CSCCC(NC(=O)COc1ccccc1)C(=O)N(C)Cc1ccc(Cl)cc1Cl (stereo unspecified),"inconclusive: 22.4 µM [inhibitor, single point]",–
Cc1c(C(=O)Nc2ccc(F)cc2)oc2ccc(S(=O)(=O)N3CC(C)CC(C)C3)cc12 (stereo unspecified),"inconclusive: 0.398 µM [inhibitor, full curve, poor fit]",–
CC1=NN(C(N)=S)C(=O)C1N=Nc1c(Cl)cc([N+](=O)[O-])cc1Cl (stereo unspecified),"inconclusive: 15.8 µM [inhibitor, single point]",–
CC1CCN(C(=O)c2ccc3ccccc3c2)CC1,–,inactive: 13.9%
CCOc1cccc(C(=O)Nc2ccc3ccccc3c2)c1,–,inactive: 5.44%

Structure (SMILES),Potency,"activity, negative = inhibition"
Cc1ccc(CN2CCC(CNC(=O)Nc3cccc(Cl)c3C)C2)cc1 (stereo unspecified),"inconclusive: 11.2 µM [inhibitor, partial curve]",–
O=C(NC1CCCCC1)C12CC3CC(CC(Cl)(C3)C1)C2,"inconclusive: 11.2 µM [inhibitor, partial curve]",–
N#CCC(=O)N/N=C/c1cc(-c2ccccc2)n(-c2ccc(Cl)cc2)c1-c1ccccc1,"inconclusive: 6.31 µM [inhibitor, single point]",–
COc1cccc(-c2nc(NC(C)C)c3ccccc3n2)c1O,"inconclusive: 35.5 µM [inhibitor, single point]",–
COc1ccccc1C(C[N+](=O)[O-])c1c(N)n(C)c(=O)n(C)c1=O (stereo unspecified),active: 7.08 µM,–
CCc1ccc(C2C(C#N)=C(N)C(C#N)(C#N)C3=CCC(C(C)(C)C)CC32)cc1 (stereo unspecified),"inconclusive: 20 µM [inhibitor, single point]",–
NC(=O)c1ccc(-n2nnnc2SCC(=O)Nc2ccc(F)cc2)cc1,"inconclusive: 35.5 µM [inhibitor, single point]",–
Cc1cc(C(=O)C(C)OC(=O)c2ccc(NC(=O)CC#N)cc2)c(C)n1-c1ccc(OC(F)F)cc1 (stereo unspecified),–,inactive: -45.5%
Clc1cccc(Cl)c1CSc1nnc(/C=C/c2ccccc2)o1,–,inactive: 9.91%
Cc1c(OCC(=O)N[C@@H](Cc2c[nH]c3ccccc23)C(=O)O)ccc2c1oc(=O)c1ccccc12,–,inactive: 6.78%
Cc1cc(C)cc(N2CC(c3nc(-c4cccc(Cl)c4)no3)CC2=O)c1 (stereo unspecified),"inconclusive: 22.4 µM [inhibitor, single point]",–
O=C(NCCN1C(=O)S/C(=C\c2ccc(Cl)c(Cl)c2)C1=O)C1COc2ccccc2O1 (stereo unspecified),"inconclusive: 15.8 µM [inhibitor, single point]",–
Cc1ccc(Nc2nc3c(c(=O)[nH]c(=O)n3C)n2Cc2ccc(F)cc2)cc1,"inconclusive: 0.891 µM [inhibitor, full curve, poor fit]",–
Oc1c(C(c2ccc(F)cc2)N2CCOCC2)sc2nc(-c3ccco3)nn12 (stereo unspecified),–,inactive: -13.3%
O=C(CCl)Nc1cc2[nH]c(=O)[nH]c2cc1Br,"inconclusive: 35.5 µM [inhibitor, single point]",–
CCCC(=O)NC(=S)Nc1c(C)cc(Br)cc1C,–,inactive: 15.5%
C[C@H](CO)N1C[C@H](C)[C@@H](CN(C)S(=O)(=O)c2cccs2)Oc2ccc(NS(=O)(=O)c3ccccc3)cc2CC1=O,–,inactive: 1.23%
Cc1ccc(NC(=O)COc2cccc(Oc3ccccc3)c2)cc1S(=O)(=O)N1CCOCC1,"inconclusive: 11.2 µM [inhibitor, partial curve, poor fit]",–
CC(=O)N1CCCc2cc(S(=O)(=O)N3CCC(C)CC3)ccc21,"inconclusive: 6.31 µM [inhibitor, single point]",–
CCOC(=O)c1c(C)[nH]c(C)c1C(=O)CSc1nnc(-c2ccc(OC(F)F)cc2)o1,–,inactive: -30.2%
Cc1ccc(/C=C/S(=O)(=O)NCC(=O)O)cc1,"inconclusive: 5.62 µM [inhibitor, single point]",–
COc1ccc(C2C3C=CCC(c4cccc(/C=C/c5ccccc5)c4)C3C(=O)N2Cc2ccccc2)cc1Cl (stereo unspecified),–,inactive: 1.57%

Structure (SMILES),Potency,"activity, negative = inhibition"
C=Cn1ccnc1P(=S)(c1ccc2c(c1)c1ccccc1n2CC)c1nccn1C=C,–,inactive: 6.86%
O=S(=O)(NC1CC1)c1ccc(S(=O)(=O)N2CCCc3ccccc32)cc1,"inconclusive: 12.6 µM [inhibitor, single point]",–
COc1ccc(C2c3[nH]c4ccccc4c3CCN2C(=O)Cc2nonc2C)c(F)c1 (stereo unspecified),"inconclusive: 28.2 µM [inhibitor, single point]",–
CCN(C[C@H]1N[C@@](Cc2ccccc2)(C(=O)OC)[C@H]2C(=O)N(Cc3ccccc3)C(=O)[C@@H]12)C(=O)Nc1ccc(C(F)(F)F)cc1,"inconclusive: 11.2 µM [inhibitor, partial curve, poor fit]",–
CC(=O)Nc1ccn(C2OC(C(COC(C)=O)NC(=O)C(COCc3ccccc3)NC(=O)OC(C)(C)C)C(OC(C)=O)C2OC(C)=O)c(=O)n1 (stereo unspecified),–,inactive: -3.37%
Cc1cc(C)cc(NC(=S)NCc2cccs2)c1,"inconclusive: 7.94 µM [inhibitor, partial curve, poor fit]",–
CCCCC(=O)NC(c1ccc(N(CC)CC)cc1)c1ccc2cccnc2c1O (stereo unspecified),"inconclusive: 7.94 µM [inhibitor, partial curve]",–
CCN(C(=O)c1cc2cc3ccc(OC)cc3nc2o1)c1cccc(C)c1,–,inactive: -1.88%
Oc1ccc(/C=N/N2CCN(C3c4ccccc4-c4ccccc43)CC2)c(O)c1,"inconclusive: 22.4 µM [inhibitor, single point]",–
COc1cccc(NC(=O)Nc2nnc(Cc3ccc(OC)c(OC)c3)s2)c1,"inconclusive: 5.62 µM [inhibitor, single point]",–
CCc1cccc(OCC(=O)Nc2ccc(C)c(S(=O)(=O)N3CCCCCC3)c2)c1,"inconclusive: 5.01 µM [inhibitor, single point]",–
C/C(=N\NC(=O)c1nnn(-c2nonc2N)c1CN(C)c1ccccc1)c1ccccn1,–,inactive: -14.9%
CCc1ccccc1NC(=O)c1ccc2c(c1)CCN2S(C)(=O)=O,"inconclusive: 3.16 µM [inhibitor, full curve, poor fit]",–
CC(C)(C)c1ccc(C(=O)Nc2cc(-c3nc4ccccc4o3)ccc2Cl)cc1,–,inactive: -5.47%
OC[C@@H]1CN(Cc2ccc(-c3ccccc3)cc2)C[C@H](n2cnc3c(NC4CCCC4)ncnc32)O1,"inconclusive: 15.8 µM [inhibitor, partial curve, poor fit]",–
Oc1c(/C=N/c2ccccn2)sc2ccccc12,"inconclusive: 12.6 µM [inhibitor, single point]",–
CCCCCn1c(=S)[nH]c2cc(C(=O)N3CCCC3)ccc2c1=O,"inconclusive: 5.62 µM [inhibitor, single point]",–
COc1cc(/C=C/C(=O)c2ccccc2O)cc(OC)c1OC,"inconclusive: 22.4 µM [inhibitor, single point]",–
COc1ccc(CC(=O)Nc2cc(Cl)ccc2O)cc1,"inconclusive: 12.6 µM [inhibitor, partial curve]",–
O=C(CC1C(=O)NCCN1Cc1ccc(-c2ccccc2)cc1)NCc1ccccc1 (stereo unspecified),"inconclusive: 1.41 µM [inhibitor, full curve, poor fit]",–
O=C(Nc1cccc(Cl)c1)NC1CCN(C2CCCCC2)C1 (stereo unspecified),–,inactive: 1.6%
O=C1CCSc2ccc(S(=O)(=O)Nc3ccc(Cl)c(C(F)(F)F)c3)cc2N1,"inconclusive: 22.4 µM [inhibitor, single point]",–
